# Measurements reported in PubChem BioAssay AID1460 (National Center for Advancing Translational Sciences (NCATS), 2008).
# Among all 270,000 compounds or so, about 5,800 (2.1%) were called active. Inconclusive results, whose numbers are uncertain, are shown with a selection of clear calls. Calls follow the shape of the dose curve; as a rule, active = well fitted inhibition curve with a large enough effect; inconclusive = small, poorly fitted or top-dose-only effect; inactive = flat fitted curve, though single readings scatter. Where the call is inconclusive, the potency comes from a doubtful curve fit.
# Target: Microtubule-associated protein tau (Homo sapiens) (UniProt P10636)
# Chain of UniProt P10636 (P10636 whole entry, looked up): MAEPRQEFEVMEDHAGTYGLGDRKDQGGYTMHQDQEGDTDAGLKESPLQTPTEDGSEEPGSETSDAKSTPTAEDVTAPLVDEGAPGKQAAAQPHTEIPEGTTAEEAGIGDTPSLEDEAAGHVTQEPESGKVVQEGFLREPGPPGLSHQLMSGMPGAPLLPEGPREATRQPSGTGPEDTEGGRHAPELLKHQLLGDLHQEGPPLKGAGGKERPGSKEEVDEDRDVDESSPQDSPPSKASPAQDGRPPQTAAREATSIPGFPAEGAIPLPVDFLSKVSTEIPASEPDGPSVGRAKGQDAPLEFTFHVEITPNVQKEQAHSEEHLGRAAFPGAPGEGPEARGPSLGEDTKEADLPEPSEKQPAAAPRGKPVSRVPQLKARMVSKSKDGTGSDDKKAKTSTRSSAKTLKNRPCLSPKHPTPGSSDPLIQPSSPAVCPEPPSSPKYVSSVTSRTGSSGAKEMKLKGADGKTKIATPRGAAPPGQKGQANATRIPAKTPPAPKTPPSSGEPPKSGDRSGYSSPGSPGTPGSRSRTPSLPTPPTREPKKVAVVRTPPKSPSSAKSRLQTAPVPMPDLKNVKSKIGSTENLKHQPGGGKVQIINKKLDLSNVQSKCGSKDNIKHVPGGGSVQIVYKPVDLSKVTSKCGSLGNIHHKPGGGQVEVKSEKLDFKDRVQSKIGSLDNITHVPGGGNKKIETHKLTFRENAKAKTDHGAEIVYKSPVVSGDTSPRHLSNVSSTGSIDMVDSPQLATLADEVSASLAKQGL
# Assay: qHTS for Inhibitors of Tau Fibril Formation, Thioflavin T Binding; also: nearly all actives have a fitted effect of over 55% in size
# Conditions: recombinant tau K18 P301L (four-repeat tau fragment), heparin-induced fibrillization, ThT fluorescence; series mostly up to 57.4 µM
# In short: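 Recombinant human tau K18 fragment […] carrying P301L, 15 uM unlabeled plus 0.24 uM Alexa 594-labeled, was fibrillized with 20 uM heparin in 100 mM sodium acetate pH 7 for 6 hr at 37 C; 30 uM ThT fluorescence read after 1 hr.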
# % is scaled to controls: 0 for no effect and ±100 for the full control effect; potency is read from the fitted curve at half-maximal effect; tags tell the direction and shape of the fitted curve.
Compound,Potency,"activity, negative = inhibition"
c1csc(-c2noc(CN3CCc4sccc4C3)n2)c1,inactive,
Cc1ccc(NC(=O)c2cc3c([nH]c2=O)CC(C)(C)CC3=O)c(C)c1,inactive,
Nc1ccc2c(c1)Nc1ccccc1CC2,"inconclusive: 7.08 µM [inhibitor, partial curve]",
Cc1ccc(OCC(=O)NC(=S)Nc2ccc(Br)cn2)cc1,"inconclusive: 3.98 µM [inhibitor, full curve, poor fit]",
Cc1cc(Cl)c(S(=O)(=O)N/N=C/c2ccc3c(c2)OCO3)c(Cl)c1,"inconclusive: 22.4 µM [inhibitor, partial curve, poor fit]",
Cc1ccc(S(=O)(=O)N2c3ccccc3-c3c(ssc3=S)C2(C)C)cc1,"inconclusive: 12.6 µM [inhibitor, partial curve]",
COC(=O)c1cc(=O)n(-c2ccc(F)cc2)c(=Nc2ccc(F)cc2)s1,"inconclusive: 28.2 µM [inhibitor, single point]",
Cn1c(=O)cc(SCC(=O)N2CCN(c3ccccc3F)CC2)c2cc(Cl)ccc21,inactive,
Cc1ccc(N2C(=O)[C@@H]3[C@H](C2=O)[C@H]2C=CC=NN2[C@@H]3C(=O)Nc2ccc(Cl)cc2)cc1,"inconclusive: 17.8 µM [inhibitor, partial curve]",
CCOC(=O)c1cc(=O)[nH]c2ccccc12,inactive,
CC(C)n1cc(/C=C2/NC(=O)N(c3cccc(Cl)c3)C2=O)c2ccccc21,inactive,
CCOC(=O)c1c(O)c(O)c(C(=O)OCC)n1-c1ccccc1,"inconclusive: 15.8 µM [inhibitor, partial curve]",
CC(=O)c1ccc(NC(=O)Nc2ccc([N+](=O)[O-])cc2)cc1,"inconclusive: 11.2 µM [inhibitor, partial curve]",
O=C(NCc1cccs1)c1cccc(Nc2nc3ccc(Br)cc3[nH]2)c1,"inconclusive: 25.1 µM [inhibitor, partial curve]",
COC(=O)c1ccc(N2CCN(CC(=O)c3ccc(-c4ccccc4)cc3)CC2)c([N+](=O)[O-])c1,"inconclusive: 17.8 µM [inhibitor, partial curve]",
CC(C)c1cccc2nc3c(c(C(C)(C)C)c12)Cn1c-3cccc1=O,inactive,
Cc1ccoc1C(=O)NCCNc1ccc(Cl)cc1[N+](=O)[O-],active: 11.2 µM,
COc1ccc(NC(=O)Nc2ccc(OCC(=O)N3CCOCC3)cc2)cc1OC,"inconclusive: 17.8 µM [inhibitor, partial curve, poor fit]",
CCn1c(SCC(=O)Nc2oc(-c3ccccc3)c(-c3ccccc3)c2C#N)nnc1-c1ccncc1,"inconclusive: 31.6 µM [inhibitor, partial curve]",
CCOc1ccc(C(=O)NCCn2cc(SCC(=O)Nc3ccccc3)c3ccccc32)cc1,"inconclusive: 2.51 µM [inhibitor, full curve]",
O=C(O)c1cc(-c2ccc(/C=C3/SC(=S)N(Cc4ccccc4)C3=O)o2)ccc1Cl,active: 10 µM,
COC(=O)c1sc(N)c(C(=O)OC)c1CSc1nc2sc3c(c2c(=O)n1C)CCC3,"inconclusive: 15.8 µM [inhibitor, partial curve]",

Compound,Potency,"activity, negative = inhibition"
CC(=O)c1ccc2c(c1)Cc1cc(C(C)=O)ccc1-2,"inconclusive: 0.447 µM [inhibitor, full curve]",
COc1ccc(N2C(=O)CC(NNC(=O)c3ccc(Br)s3)C2=O)cc1 (stereo not drawn),"inconclusive: 10 µM [inhibitor, partial curve, poor fit]",
NNC(=O)CCc1c[nH]c2ccccc12,"inconclusive: 15.8 µM [inhibitor, single point]",
Cc1nn(C)cc1/C=N/NC(=S)Nc1ccc(Cl)cc1Cl,"inconclusive: 28.2 µM [inhibitor, partial curve]",
C[C@]12CC[C@H]3c4ccc(OC[C@H]5CO5)cc4CC[C@H]3[C@H]1CC[C@@H]2O,"inconclusive: 1.78 µM [inhibitor, partial curve]",
CCn1c(O)c(N=NC(=O)CNC(=O)c2ccco2)c2ccccc21,inactive,
C/C=C(/C)C(=O)O[C@@H]1c2c(ccc3ccc(=O)oc23)OC(C)(C)[C@@H]1OC(=O)/C(C)=C\C,inactive,
CCN(CC)c1ccc2cc(-c3nc4ccccc4[nH]3)c(=O)oc2c1,"inconclusive: 1.58 µM [activator, full curve]",
NC1=NC(=O)C(Cc2ccccc2)S1 (stereo not drawn),inactive,
O=C(Cn1nc(C(F)(F)F)c2c1CCC2)Nc1ccc(Cl)cc1,inactive,
Cc1ccc(/C=C/C(=O)O)cc1S(=O)(=O)Nc1ccc2c(c1)OCO2,inactive,
CO[C@H]1COC(=O)[C@H](C)COC(=O)[C@H](C)NC(=O)C/C=C\[C@H]1C,,inactive: 1.25% [at 11.5 µM]
Cc1ccc(C2CC(c3ccccc3)=NN2C(=S)Nc2ccccc2)o1 (stereo not drawn),"inconclusive: 17.8 µM [inhibitor, single point]",
CC(=O)C1=C(C)NC(C)=C(C(C)=O)C1c1ccc(-c2ccccc2Cl)o1,"inconclusive: 20 µM [inhibitor, single point]",
Cc1ccc2cc(CN(CCN(C)C)C(=O)Nc3ccc(Cl)cc3)c(=O)[nH]c2c1,"inconclusive: 8.91 µM [inhibitor, partial curve]",
O=C1CC(/C=C/c2ccco2)=Nc2ccccc2N1,"inconclusive: 31.6 µM [inhibitor, partial curve]",
COC(=O)c1ccccc1NC(=O)CSc1nc(-c2ccco2)cc(C(F)(F)F)n1,"inconclusive: 10 µM [inhibitor, partial curve]",
CC1=C(C(=O)Nc2ccc(Cl)cc2)C(C(C)C)n2nc(SCc3ccc(Cl)cc3)nc2N1 (stereo not drawn),inactive,
Cc1ccccc1CN1CCc2c(OCC(=O)N3CCCc4ccccc43)cccc2C1=O,"inconclusive: 15.8 µM [inhibitor, partial curve]",
Cc1ccc(C)c(N2CCN(C(=O)CCn3c(=O)c4cccn4c4cccnc43)CC2)c1,"inconclusive: 20 µM [inhibitor, single point]",
CCN(Cc1ccccc1)C(=O)CN1C(=O)COc2ccc(S(=O)(=O)N(CC)CC)cc21,inactive,
